Read-outs that look alike come from different tables or passages of the source. These are yes or no findings as the source states them, for the method shown. In cells and extracts the contact can be indirect. Some binding calls cover weakened binding; strength is not graded here. For some of these results: Tags and fused reporters may be left off the sequences shown.

Protein sequences, listed by entry. Tags and fused reporters are not part of them. Lines headed by an entry give the natural chain unless they say otherwise; changes in a name come on top. Chains listed by the source or under a name are the forms on record and can include a tag or linker. Residues count along the entry.
UniProt P11021, residues 19-654: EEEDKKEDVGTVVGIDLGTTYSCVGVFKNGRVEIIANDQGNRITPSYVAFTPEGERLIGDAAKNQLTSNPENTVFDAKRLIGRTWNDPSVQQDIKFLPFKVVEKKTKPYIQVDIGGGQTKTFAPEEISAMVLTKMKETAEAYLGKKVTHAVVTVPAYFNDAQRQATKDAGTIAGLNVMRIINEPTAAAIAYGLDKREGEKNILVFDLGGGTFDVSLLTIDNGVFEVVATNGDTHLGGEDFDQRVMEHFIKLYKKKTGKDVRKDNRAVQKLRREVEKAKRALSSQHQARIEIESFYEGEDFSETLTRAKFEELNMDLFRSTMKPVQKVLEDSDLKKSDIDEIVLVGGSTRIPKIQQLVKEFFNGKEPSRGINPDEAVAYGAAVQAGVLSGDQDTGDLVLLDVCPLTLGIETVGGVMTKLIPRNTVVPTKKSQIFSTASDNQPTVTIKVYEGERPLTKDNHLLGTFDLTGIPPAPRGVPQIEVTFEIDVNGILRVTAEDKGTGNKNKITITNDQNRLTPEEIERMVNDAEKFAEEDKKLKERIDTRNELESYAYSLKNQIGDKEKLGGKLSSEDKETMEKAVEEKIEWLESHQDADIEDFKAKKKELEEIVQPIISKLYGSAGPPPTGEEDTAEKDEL
UniProt P10275: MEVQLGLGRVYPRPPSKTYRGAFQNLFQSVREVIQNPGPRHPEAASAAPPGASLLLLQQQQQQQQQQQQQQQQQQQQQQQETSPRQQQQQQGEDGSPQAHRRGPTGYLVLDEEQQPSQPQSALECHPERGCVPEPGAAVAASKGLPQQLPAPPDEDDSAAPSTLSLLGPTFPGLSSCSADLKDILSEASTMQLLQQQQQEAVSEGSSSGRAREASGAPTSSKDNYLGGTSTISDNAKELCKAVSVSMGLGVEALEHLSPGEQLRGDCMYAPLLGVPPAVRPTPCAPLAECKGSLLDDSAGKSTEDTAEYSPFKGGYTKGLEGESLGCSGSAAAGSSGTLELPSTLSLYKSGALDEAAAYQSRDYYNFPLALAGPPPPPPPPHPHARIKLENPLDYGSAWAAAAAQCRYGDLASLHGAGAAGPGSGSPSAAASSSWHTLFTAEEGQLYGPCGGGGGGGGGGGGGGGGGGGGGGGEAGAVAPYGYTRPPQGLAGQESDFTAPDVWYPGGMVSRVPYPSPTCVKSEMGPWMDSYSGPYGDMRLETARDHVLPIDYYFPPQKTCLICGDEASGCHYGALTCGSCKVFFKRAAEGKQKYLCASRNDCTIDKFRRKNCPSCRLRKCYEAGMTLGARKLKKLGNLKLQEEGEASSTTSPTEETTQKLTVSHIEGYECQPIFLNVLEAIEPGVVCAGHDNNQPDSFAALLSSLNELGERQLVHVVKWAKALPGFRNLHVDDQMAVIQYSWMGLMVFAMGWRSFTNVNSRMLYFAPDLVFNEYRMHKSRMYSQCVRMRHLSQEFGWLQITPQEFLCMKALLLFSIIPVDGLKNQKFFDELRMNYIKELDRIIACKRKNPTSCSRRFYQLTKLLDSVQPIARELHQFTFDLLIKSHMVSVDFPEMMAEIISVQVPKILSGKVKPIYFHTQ
Androgen receptor splice variant 7 (AR-V7) (human (endogenous in 22Rv1)) (P10275-3, form named): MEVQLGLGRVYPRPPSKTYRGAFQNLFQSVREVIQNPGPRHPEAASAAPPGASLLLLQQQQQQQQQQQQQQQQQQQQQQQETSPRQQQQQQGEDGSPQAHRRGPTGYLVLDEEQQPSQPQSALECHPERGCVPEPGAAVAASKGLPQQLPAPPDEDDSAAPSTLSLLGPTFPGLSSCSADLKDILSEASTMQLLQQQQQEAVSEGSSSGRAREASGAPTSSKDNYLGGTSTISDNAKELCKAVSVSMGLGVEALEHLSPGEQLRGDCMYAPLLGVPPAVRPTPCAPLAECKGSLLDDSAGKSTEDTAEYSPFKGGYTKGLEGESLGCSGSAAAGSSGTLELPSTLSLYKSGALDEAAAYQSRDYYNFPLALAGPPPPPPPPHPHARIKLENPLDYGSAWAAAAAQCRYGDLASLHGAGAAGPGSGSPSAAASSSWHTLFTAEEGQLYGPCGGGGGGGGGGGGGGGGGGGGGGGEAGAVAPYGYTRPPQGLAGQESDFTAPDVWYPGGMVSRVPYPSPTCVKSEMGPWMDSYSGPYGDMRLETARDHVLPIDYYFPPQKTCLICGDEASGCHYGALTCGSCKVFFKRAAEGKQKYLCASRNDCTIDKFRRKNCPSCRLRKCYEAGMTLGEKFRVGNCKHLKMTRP
UniProt Q00987: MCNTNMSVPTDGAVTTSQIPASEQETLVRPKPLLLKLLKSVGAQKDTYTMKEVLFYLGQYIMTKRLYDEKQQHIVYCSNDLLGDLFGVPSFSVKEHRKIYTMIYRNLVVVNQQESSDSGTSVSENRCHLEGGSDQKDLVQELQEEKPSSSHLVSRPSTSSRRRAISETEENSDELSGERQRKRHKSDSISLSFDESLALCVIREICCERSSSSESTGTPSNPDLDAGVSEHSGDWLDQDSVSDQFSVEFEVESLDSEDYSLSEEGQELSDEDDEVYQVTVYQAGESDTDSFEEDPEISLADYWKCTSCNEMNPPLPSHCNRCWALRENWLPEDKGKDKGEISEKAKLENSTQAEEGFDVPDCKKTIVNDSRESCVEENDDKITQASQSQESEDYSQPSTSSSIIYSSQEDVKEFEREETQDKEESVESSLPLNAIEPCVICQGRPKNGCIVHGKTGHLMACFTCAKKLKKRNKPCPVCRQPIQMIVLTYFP
UniProt Q9UNE7: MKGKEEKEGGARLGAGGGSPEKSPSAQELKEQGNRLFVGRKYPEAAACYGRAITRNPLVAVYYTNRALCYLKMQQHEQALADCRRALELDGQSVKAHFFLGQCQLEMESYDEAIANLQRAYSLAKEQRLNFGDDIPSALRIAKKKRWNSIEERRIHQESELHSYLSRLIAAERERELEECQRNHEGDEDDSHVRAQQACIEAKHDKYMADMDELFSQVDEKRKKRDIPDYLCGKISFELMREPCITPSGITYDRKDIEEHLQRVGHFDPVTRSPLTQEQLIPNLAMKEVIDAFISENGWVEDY

Test [1] deals with glucose-regulated protein 78kD (GRP78, also known as BiP) (human (endogenous in 22Rv1)) (UniProt P11021). Put plainly: co-IP; GRP78 antibodies, cytoplasmic and nuclear extracts of 22Rv1 cells, immunoblot for GRP78, SIAH2 and AR-V7.
Test [2] shares this target. Briefly: co-IP; GRP78 antibody beads, 22Rv1 lysate (RIPA buffer), endogenous proteins, immunoblot for AR-FL and AR-V7; also cells exposed to rutaecarpine for 12 h (Figure 2H, interaction increased; its precipitating antibody is not stated). (In western blotting, separated proteins are transferred to a membrane and probed.)
In test [3] the target is FLAG-GRP78 (human) (UniProt P11021). Put plainly: co-IP; FLAG-tag antibodies, HEK293T cells co-transfected for 48 h, immunoblot for HA or Myc and FLAG.
In test [4] the target is glucose-regulated protein 78kD (GRP78, also known as BiP) (human (endogenous in 22Rv1)) (UniProt P11021). Put plainly: co-IP; 22Rv1 cells, endogenous GRP78 with SIAH2, STUB1 or MDM2; precipitating antibody not stated.
Test [5] addresses Androgen receptor splice variant 7 (AR-V7) (human (endogenous in 22Rv1)) (UniProt P10275). Briefly: co-IP; AR-V7 antibodies, cytoplasmic and nuclear extracts of 22Rv1 cells, immunoblot for GRP78, SIAH2 and AR-V7.
Test [6] shares this target. Briefly: co-IP; AR-V7 antibody or control IgG on Dynabeads, 22Rv1 lysate (RIPA buffer), 4 °C 1 h, washed with PBS-T; endogenous proteins, immunoblot.
The target is the same in test [7]. Put plainly: co-IP; cells overexpressing GRP78 (Figure S3A; legend, cells and antibodies not shown).
The target of test [8] is FLAG-GRP78 (human) (UniProt P11021). Put plainly: co-IP; FLAG-tag antibodies, HEK293T cells co-transfected for 48 h, immunoblot for HA or Myc and FLAG. The source holds these as a separate data set.

As for “Androgen receptor splice variant 7 (AR-V7) (from UniProt P10275-3 1-644)”, the binding result in test [1] and in test [2] was “binds” in each case.
Take “HA-AR-V7 WT (from UniProt P10275-3 1-644)”: in the test with FLAG-GRP78 (human) [3], the binding entry is “binds”.
On to “MDM2 (from UniProt Q00987 1-491) (enzyme)”, for which the binding entry in test [4] was “no binding”.
In the case of “STUB1/CHIP (from UniProt Q9UNE7 1-303) (enzyme)”, the binding entry in test [4] is on record as “no binding”.
In the case of “androgen receptor, AR-FL (from UniProt P10275 1-920)”, the binding entry in test [2] is reported as “binds weakly”.
For the molecule “glucose-regulated protein 78kD (GRP78, also known as BiP) (from UniProt P11021 19-654)”, the binding result in test [5] and in test [6] was “binds” each time.

B1: siah E3 ubiquitin protein ligase 2 (SIAH2) (enzyme, UniProt O43255 1-324)
chain: MSRPSSTGPSANKPCSKQPPPQPQHTPSPAAPPAAATISAAGPGSSAVPAAAAVISGPGGGGGAGPVSPQHHELTSLFECPVCFDYVLPPILQCQAGHLVCNQCRQKLSCCPTCRGALTPSIRNLAMEKVASAVLFPCKYATTGCSLTLHHTEKPEHEDICEYRPYSCPCPGASCKWQGSLEAVMSHLMHAHKSITTLQGEDIVFLATDINLPGAVDWVMMQSCFGHHFMLVLEKQEKYEGHQQFFAIVLLIGTRKQAENFAYRLELNGNRRRLTWEATPRSIHDGVAAAIMNSDCLVFDTAIAHLFADNGNLGINVTISTCCP
Take B1: the binding result in test [7], in test [4], in test [5] and in test [1] was “binds” in each case.

B2: Myc-SIAH2 (enzyme, UniProt O43255 1-324)
chain: MSRPSSTGPSANKPCSKQPPPQPQHTPSPAAPPAAATISAAGPGSSAVPAAAAVISGPGGGGGAGPVSPQHHELTSLFECPVCFDYVLPPILQCQAGHLVCNQCRQKLSCCPTCRGALTPSIRNLAMEKVASAVLFPCKYATTGCSLTLHHTEKPEHEDICEYRPYSCPCPGASCKWQGSLEAVMSHLMHAHKSITTLQGEDIVFLATDINLPGAVDWVMMQSCFGHHFMLVLEKQEKYEGHQQFFAIVLLIGTRKQAENFAYRLELNGNRRRLTWEATPRSIHDGVAAAIMNSDCLVFDTAIAHLFADNGNLGINVTISTCCP
Regarding B2, in the test with FLAG-GRP78 (human) [8], the binding result is recorded as “binds”.

Source of the values: PMC7069092.
